Test results taken from PubChem BioAssay AID1671188 (National Center for Advancing Translational Sciences (NCATS), 2021).
In all, about 100,000 compounds went through this assay and about 250 (0.25%) were called active. Inconclusive means that the source gave no clear call. Such entries were picked first, then a sample of the others. Calls come from the whole dose curve; as a rule, active = well fitted inhibition curve with a large enough effect; inconclusive = small, poorly fitted or top-dose-only effect; inactive = flat fitted curve, though single readings scatter. No potency is given beside an inconclusive call; the fits are too rough.

The compounds below were run against Alanine aminotransferase 2 (Homo sapiens) (UniProt Q8TD30) (assay: Primary qHTS assay for inhibitors of Glutamate pyruvate transaminase 2 (GPT2)). Conditions: Recombinant GPT2, coupled pyruvate oxidase/HRP Amplex Red fluorescence; activity change, negative = inhibition: at 57.7 µM (top of the series) unless noted; series mostly up to 57.7 µM.
Chain of UniProt Q8TD30 (Q8TD30 whole entry, looked up): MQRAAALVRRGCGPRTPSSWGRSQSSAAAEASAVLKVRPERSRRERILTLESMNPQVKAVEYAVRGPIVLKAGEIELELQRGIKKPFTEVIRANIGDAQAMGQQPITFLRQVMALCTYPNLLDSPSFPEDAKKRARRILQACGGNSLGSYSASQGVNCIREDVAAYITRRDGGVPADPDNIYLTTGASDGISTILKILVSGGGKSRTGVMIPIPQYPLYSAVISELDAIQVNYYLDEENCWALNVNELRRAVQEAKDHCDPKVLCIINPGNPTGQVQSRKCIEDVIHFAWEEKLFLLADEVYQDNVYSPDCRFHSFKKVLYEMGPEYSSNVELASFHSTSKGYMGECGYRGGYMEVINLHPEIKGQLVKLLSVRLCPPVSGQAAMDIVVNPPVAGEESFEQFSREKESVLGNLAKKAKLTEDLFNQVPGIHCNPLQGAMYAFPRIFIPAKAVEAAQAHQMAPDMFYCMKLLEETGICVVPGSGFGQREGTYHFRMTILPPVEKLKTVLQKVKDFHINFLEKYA
Outline: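 Fluorescence of coupled pyruvate oxidase/HRP/Amplex Red system (50uM Amplex, 30 min, dark) reports pyruvate formed by GPT2. Enzyme reaction: 10ng/uL GPT2, 2mM L-alanine, 250uM a-KG, 30 min room temperature, pH 7.5; 50uM AOA control.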
% is set by controls: 0 for no effect and ±100 for the full control effect; potency is the fitted concentration of half-maximal effect; tags give direction and shape of the fitted curve.
Note: nearly all actives have a fitted effect of over 60% in size.

SMILES | outcome | activity change, negative = inhibition | Potency
O=[S+]([O-])(CCC(F)(F)F)N1CCN(Cc2ccccc2-c2cccnc2)CC1 | inactive |  | 
Cc1ccc(C(=O)N2[C@@H]3CC[C@H]2CC(NC(=O)c2ccncc2)C3)cc1 (stereo partly drawn) |  | inactive: 1.62% | 
Cc1ccc(CCN2CCCC23Cc2ccccc2CNC3=O)cc1 (stereo not drawn) | inactive |  | 
O=C(NC1CCN(c2cc(C(F)(F)F)ncn2)CC1)c1ccccc1Cl |  |  | inconclusive [inhibitor, single point]
O=C(Nc1ccc(F)cc1)C1CCN(C(=O)c2ncn3c2COC(c2ccccc2)C3)CC1 (stereo not drawn) |  | inactive: 2.46% | 
CCc1ccccc1NC(=O)Cn1c(N2CCc3ccccc3C2)nc(C)cc1=O |  |  | inconclusive [inhibitor, full curve, poor fit]
Cc1nn(-c2ccc(C(F)(F)F)cc2)c(C)c1[C@@H]1C=C[C@@H](NC(=O)NC2CCCCC2)C1 |  |  | inconclusive [inhibitor, partial curve, poor fit]
COCc1nncn1C1CCN(S(=O)(=O)c2ccc(C)cc2C)CC1 |  |  | inconclusive [inhibitor, single point]
O=C(C1CCCCC1)N1CCC(N2C(=O)C(O)C23CCCCC3)CC1 (stereo not drawn) |  |  | inconclusive [inhibitor, single point]
Cc1cnc(CC2CCCN(C(=O)C3(c4ccccc4)CC3)C2)n1Cc1ccc(F)cc1 (stereo not drawn) |  | inactive: 3.67% | 
N#Cc1c(NC(=O)c2cccc3ccccc23)sc2c1CCCC2 |  | inactive: -7.45% | 
CC(C)Cn1c(=O)c(C(=O)NCCc2ccccc2)nc2cccnc21 |  | inactive: -8.71% | 
Cc1ccc(S(=O)(=O)Nc2ccc3c(c2)CN(Cc2ccccc2)C(=O)CO3)cc1 |  |  | inconclusive [inhibitor, single point]
COc1ccc(C(=O)N(CCC(C)C)Cc2nc(C)c(C)n2Cc2ccccc2C)c(OC)c1 |  |  | inconclusive [inhibitor, single point]
COc1ccc(-c2cc(-c3ccc(F)cc3OC)cn3cncc23)cc1 |  |  | inconclusive [inhibitor, single point]
COc1ccc(-c2cc(C[C@@H]3CC[C@H](O)[C@@H](CNCc4cccc(Cl)c4)O3)no2)cc1 |  |  | inconclusive [inhibitor, single point]
Cn1ccc2cc3c(cc21)CCN3C(=O)Nc1cccnc1 |  |  | inconclusive [inhibitor, single point]
Cc1cc(C)c(S(=O)(=O)c2nnn3c2nc(NCc2ccc(F)cc2)c2ccccc23)c(C)c1 |  |  | inconclusive [inhibitor, partial curve, poor fit]
Cn1ccnc1CN1C(=O)CO[C@H](c2ccc(NC(=O)c3ccc(C(F)(F)F)cc3)cc2)[C@H]1CO |  |  | inconclusive [inhibitor, partial curve, poor fit]
COCc1cccc(-c2n[nH]c3c2CC(=O)N(CCOc2ccccc2)C3)c1 |  | inactive: 3.06% [at 88.5 µM] | 
O=C(NCc1ccccn1)C1CCN(c2nccc(-c3cccnc3)n2)CC1 |  |  | inconclusive [inhibitor, full curve, poor fit]
O=C(Cc1ccc(F)cc1)Nc1cc(C2CC2)nn1-c1ccccc1 | inactive [at 88.5 µM] |  | 

SMILES | outcome | activity change, negative = inhibition | Potency
C[S+](=O)([O-])c1ccc(-c2nnc3ccc(C(=O)NCc4cccc(Cl)c4)cn23)cc1 | inactive |  | 
COCCN1C(=O)Cc2ccccc2C1C(=O)NCc1ccccc1 (stereo not drawn) |  |  | inconclusive [inhibitor, single point]
O=C(CN1C(=O)CNC1=O)N1CCCC(Nc2ccc3c(c2)OCO3)C1 (stereo not drawn) |  |  | inconclusive [inhibitor, full curve, poor fit]
O=C(C1CCCCC1)N1CCN2CCS(=O)(=O)N(C3CC3)C(=O)C2C1 (stereo not drawn) |  |  | inconclusive [inhibitor, single point]
COc1ccc(C(C)NC(=O)c2ccc(Cn3ccn4nc5c(c4c3=O)CCCC5)cc2)cc1 (stereo not drawn) |  | inactive: 2.98% | 
CC(C)OCCCNc1nc2c([S+](=O)([O-])c3cccnc3)nnn2c2ccccc12 |  |  | inconclusive [inhibitor, partial curve, poor fit]
COC[C@@H]1CN(C(=O)COc2cccc(C)c2)C[C@H]1c1ccccn1 |  |  | inconclusive [inhibitor, partial curve, poor fit]
COc1ccc(Nc2cnc3ccc(-c4ccc(F)cc4)nn23)cc1 |  |  | inconclusive [inhibitor, partial curve, poor fit]
C#CCNC(=O)C[C@@H]1CCN(C(=O)CCCCC)C[C@@H]1CC |  |  | inconclusive [inhibitor, single point]
CCCCN(CC)c1nc(C)nc2c1c(C)cn2-c1c(C)cc(C)cc1C |  |  | inconclusive [inhibitor, single point]
O=C(NC1CCc2nnc(C3CC3)n2CC1)C1CC=CCC1 (stereo not drawn) |  | inactive: 0.292% | 
CN1CCC(N2CC[C@@H]3[C@H]2C(=O)NC[C@H](CCC(=O)Nc2ccccc2)N3C)CC1 |  |  | inconclusive [inhibitor, single point]
CCCCS(=O)(=O)N1CCCC(c2[nH]ccc2C(=O)NC)C1 (stereo not drawn) | inactive |  | 
O=C(Nc1ccccc1)c1ccc2c(c1)OCCN(CCC(F)(F)F)C2 |  |  | inconclusive [inhibitor, single point]
C[C@H]1[C@@H]2[C@@H](O)C([C@H](C)C(=O)NCc3cccnc3)CC[C@@]2(C)CC[C@@H]1NC(=O)c1ccccn1 (stereo partly drawn) |  | inactive: 4.02% | 
CC(=O)c1cccc(NC(=O)Cn2c(-c3ccc(F)cc3)nc(C)c(CCO)c2=O)c1 |  |  | inconclusive [inhibitor, single point]
Cc1c(O)cccc1C(=O)N1CCC2(CC1)Nc1ccccc1NC2=O |  |  | inconclusive [inhibitor, single point]
Cc1cccc(CNC(=O)c2noc(-c3ccc4c(c3)OCO4)n2)c1 | inactive |  | 
c1cc(-c2ccco2)cc(-c2nc(C3CCOC3)no2)c1 (stereo not drawn) |  | inactive: -15.3% | 
Cc1ccccc1N(C)C1CN(C(=O)c2ccc(C(F)(F)F)cc2)C1 |  |  | inconclusive [inhibitor, partial curve]
COc1ccc(C(=O)NC2CCN(c3cc(-c4cccs4)[nH]n3)C2)cc1OC (stereo not drawn) |  |  | inconclusive [inhibitor, partial curve]
